# Data as given in PubChem BioAssay AID1347073 (National Center for Advancing Translational Sciences (NCATS), 2019).
# The campaign covered roughly 45,000 compounds. About 200 (0.44%) were called active. Roughly 7% stayed inconclusive and do not appear here. Calls follow the shape of the dose curve; as a rule, active = well fitted activation curve with a large enough effect; inconclusive = small, poorly fitted or top-dose-only effect; inactive = no such curve, though single readings can be large or run the other way. This is one part of the list.
# Assay: qHTS of TDP-43 Inhibitors: NCGC Sytravon Library Screen; also: 0% is about no effect; nearly all actives have a fitted effect of over 55% in size
# Details: yeast TDP-43 toxicity rescue, BacTiter-Glo growth, 24 h; series mostly up to 46.1 µM; growth rescue (activation): at the top concentration
# Outline: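 TDP-43-expressing yeast, pregrown in raffinose, seeded at OD600 0.02 in galactose medium with compound for 24 hr at 30 deg C. Growth read by BacTiter-Glo luminescence, so rescue of toxicity appears as activation.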
row,SMILES,growth rescue (activation)
1,COC(=O)C1=C(C)N(C2CCCCC2)C(=O)/C1=C\c1cccs1,inactive: 7.55%
2,CCCNc1nc2nc3ccccn3c(=O)c2cc1C(=O)NCCN1CCOCC1,inactive: -6.99%
3,Cc1ccccc1Nc1c([N+](=O)[O-])ccc2nonc12,inactive: -12.2%
4,Cc1nn2c(N3CCN(C)CC3)cc(C(C)(C)C)nc2c1-c1ccccc1,inactive: 1.97%
5,CC1CCCN(C(=O)C2CC(=O)N(c3ccc(Cl)cc3)C2)C1 (stereo not drawn),inactive: 7.71%
6,COC(=O)c1sc(NC(=O)C2c3ccccc3Oc3ccccc32)c(C(=O)OC)c1C,inactive: 1.7%
7,O=C(CSc1nncn1-c1ccccc1)c1c[nH]c2ccccc12,inactive: 6.17%
8,COc1ccc(NC(=S)N2CCN(C(=O)C3CCCO3)CC2)cc1 (stereo not drawn),inactive: 15.6%
9,CC(=O)Nc1ccc2c(CSc3nncs3)cc(=O)oc2c1,inactive: 15.8%
10,O=C(CCCC(=O)c1ccccc1)NCCc1ccccc1,inactive: -5.86%
11,CC1(C)CC(NC(=O)c2ccc(Br)o2)CC(C)(C)N1,inactive: -13.4%
12,O=C(/C=C/c1ccccc1)NCc1cccnc1,inactive: -6.15%
13,CC(C)Oc1snc(Cl)c1C(N)=O,inactive: -3.88%
14,CCOC(=O)c1c(-c2ccccc2)cn2c(C)cc(C)nc12,inactive: 10%
15,CC(C)(C)c1cc(P(=O)(c2ccccc2)c2ccccc2)ccc1O,inactive: -0.751%
16,O=C(CCN1CCCC1)Nc1cccc(Br)c1,inactive: -28.9%
17,COc1ccc(C(=O)CC(=O)C(=O)Nc2cccc(C(C)=O)c2)cc1,inactive: -11.1%
18,Cc1cc(C)nc(SCC(=O)NN=C2CCCC2)n1,inactive: -1.65%
19,Nc1nc(-c2ccccn2)nc(N)c1Cc1ccccc1F,inactive: 4.2%
20,CC(C)Oc1cc(S(=O)(=O)N2CCCCC2)ccc1N,inactive: 4.51%
21,COc1ccc(CN(C)CC2CCCN(CCc3ccccc3C)C2)cc1O (stereo not drawn),inactive: 2.85%
22,Cc1[nH]c(=O)c(C#N)c(C)c1Cc1ccc(Cl)cc1Cl,inactive: -4.5%
23,O=C(CCSc1ccccc1)NCC1CCCO1 (stereo not drawn),inactive: 31.7%

row,SMILES,growth rescue (activation)
1,CCN(CC)S(=O)(=O)c1ccc(NS(=O)(=O)c2ccc3oc(=O)[nH]c3c2)cc1,inactive: -3.67%
2,c1cc(-c2ccc3[nH]ccc3c2)n2ccnc2c1,inactive: -5.58%
3,COc1ccc(NC(=O)CN(C)C(=O)c2cnc(Cl)c(Cl)c2)cc1,inactive: 6.51%
4,Cc1c(CCC(=O)O)c(=O)oc2cc3occ(-c4ccc(Cl)cc4)c3cc12,inactive: 11.5%
5,COc1ccc(S(=O)(=O)N(CC(=O)NCC2CCCO2)C2CCCCC2)cc1OC (stereo not drawn),inactive: -4.11%
6,COc1ccc(C(=O)NC(=S)Nc2ccc3[nH]c(=O)[nH]c3c2)cc1,inactive: 7.72%
7,C=CCNC(=O)[C@H]1N2C(=O)c3ccccc3C2SC1(C)C (stereo partly drawn),inactive: 3.14%
8,O=C(NC1CCN(Cc2ccccc2)CC1)c1cccc(OC(F)F)c1,inactive: 6.76%
9,CCc1ccc(NC(=S)N2CCNC(=O)C2CC(=O)OC)cc1 (stereo not drawn),inactive: 4.5%
10,CCCCCCCCCCCCCCCC[n+]1cccc2ccccc21,inactive: -81.6%
11,Cc1ccc(S(=O)(=O)N(C)C)cc1N,inactive: 8.74%
12,COc1cc(C)c(Cl)cc1S(=O)(=O)N1CCCC1,inactive: 3.86%
13,CC1N(C)c2cc(NC(=O)c3cccs3)c(P(=O)(Nc3ccc([N+](=O)[O-])cc3)N3CCOCC3)cc2C1(C)C (stereo not drawn),inactive: -0.686%
14,Cc1c([N+](=O)[O-])c([N+](=O)[O-])nn1CC(=O)N1CCOCC1,inactive: -1.62%
15,O=C(Nc1nnc([C@H]2C[C@H](O)[C@@H](CO)O2)s1)Nc1ccccc1C(F)(F)F,inactive: 6.11%
16,COc1ccc(N(C(=O)c2ccco2)C(C(=O)NC2CCCC2)c2ccc(OC)c(OC)c2)cc1 (stereo not drawn),inactive: 10.8%
17,CCn1c2ccccc2c2cc(CN3CCN(Cc4ccc(OC)c(OC)c4)CC3)ccc21,inactive: 8.76%
18,COc1ccc(NS(=O)(=O)c2ccc3oc(SCc4ccc(F)cc4)nc3c2)cc1,inactive: -16.1%
19,CCOC(=O)N1N=C(c2ccccc2)CC1(O)C(C)(F)F (stereo not drawn),inactive: -3.44%
20,Cc1ccc(OCC(=O)NCCNC(=O)c2ccncc2)cc1C,inactive: 6.4%
21,CCN(CC)C(=S)NCCc1ccccc1,inactive: -6.13%
22,O=c1ccc(=O)n2n1CC(O)C2,inactive: -5.99%
23,Cc1ccc(C)c(OCCSc2nnc(-c3cccnc3)n2N)c1,inactive: 7.38%

row,SMILES,growth rescue (activation)
1,O=C(NCc1cccc(C(F)(F)F)c1)c1ccc2sc([C@@H]3O[C@H](CO)[C@H](O)[C@H](O)[C@H]3O)nc2c1,inactive: 19.1%
2,CC1(C)C2CCC1(CS(=O)(=O)Nc1ccccc1)C(=O)C2 (stereo not drawn),inactive: -2.28%
3,Cc1cc(Cl)cc(Br)c1OCCCNCC(C)O (stereo not drawn),inactive: -2.03%
4,C[N+]1(CCOc2ccc([N+](=O)[O-])cc2)CCOCC1,inactive: -14.9%
5,CC(Oc1ccc(F)cc1Br)c1nc2ccccc2c(=O)[nH]1 (stereo not drawn),inactive: 23.1%
6,CNc1cncc(-c2ccc(CN3CCOCC3)cc2)n1,inactive: -5.46%
7,Cc1nn(-c2ccccn2)c(N)c1N=O,inactive: 22.7%
8,CN(C)c1ccc(N=Nc2ccccc2C(=O)OCC(=O)N(C)C2CCCCC2)cc1,inactive: -0.427%
9,O=C(CCc1nnc(Cc2ccc(-c3ccccc3)cc2)o1)N1CCCC1,inactive: 20.2%
10,CNC(=O)C(NC(=O)c1ccccc1)=C(C)C,inactive: 0.416%
11,CC1Cc2ccccc2N1C(=O)CN1CCCCC1 (stereo not drawn),inactive: 6.92%
12,CC(C)(C)CC(=O)Nc1nnc(SCC(=O)NC2CCCC2)s1,inactive: 9.83%
13,COC(=O)COc1ccc2c(=O)c(-c3ccccc3OC)coc2c1,inactive: -9.2%
14,Cc1cc(Br)ccc1NC(=O)CSc1nnc(CN2CCOCC2)n1C,inactive: -5.58%
15,O=C(NC(=S)NCc1cccnc1)c1ccccc1F,inactive: -9.73%
16,COc1ccc(NC(=O)CCNC(=O)c2ccco2)cc1Cl,inactive: 2.83%
17,Cc1ccccc1NC(=O)COC(=O)/C=C/c1cccc(C(F)(F)F)c1,inactive: 9.12%
18,COc1ccc(C(=O)N2CCCC(c3cc(C(=O)NCc4ccccc4)no3)C2)cc1 (stereo not drawn),inactive: 12.4%
19,Cc1cnc(C(=O)N(CC(C)C)c2c(N)n(CC(C)C)c(=O)[nH]c2=O)cn1,inactive: 6.33%
20,C/C(=N\NC(=O)CNc1cccc2ccccc12)c1ccc(Br)s1,inactive: 10.8%
21,CCN1CCN(c2c(Cl)cccc2NC(=O)c2ccc([N+](=O)[O-])cc2)CC1,inactive: 8.28%
22,O=C1CCN(S(=O)(=O)c2ccccc2)N1,inactive: 7.7%
23,Cc1cc(C)cc(NC(=O)CCCSc2nc3ccccc3[nH]2)c1,inactive: -9.01%

row,SMILES,growth rescue (activation)
1,O=C(CSc1nc2ncc(Cl)cc2[nH]1)c1c[nH]c2ccccc12,inactive: 20.2%
2,O=C(/C=C/c1ccccc1)NCCSCc1ccccc1,inactive: 25.9%
3,O=C(/C=C/c1cccc(F)c1)N1CCN(c2ncccn2)CC1,inactive: 28.8%
4,O=[N+]([O-])c1ccc(/C=C/c2ccc3cccc([N+](=O)[O-])c3n2)cc1,inactive: 7.71%
5,Clc1ccccc1-c1nn2c(Cn3cnc4ccccc43)nnc2s1,inactive: 25.9%
6,COc1ccc(C(=O)N/C(=C\c2ccco2)C(=O)NC2CCS(=O)(=O)C2)cc1 (stereo not drawn),inactive: -0.617%
7,COc1ccc(N2C(=O)C3C(C2=O)C3(c2ccccc2)c2ccccc2)cc1 (stereo not drawn),inactive: 24.8%
8,Cc1cccnc1C(NC(=O)C1CCN(Cc2ccc(Cl)cc2)CC1)c1ccc(F)cc1 (stereo not drawn),inactive: 12.3%
9,O=C(O)c1ccc2ncc(NC(=O)c3ccc(F)cc3)c(=O)n2c1,inactive: -1.37%
10,Cc1ccc(NC(=O)Cn2nc(C)c([N+](=O)[O-])c2C)cc1C,inactive: -2.79%
11,COc1ccc(S(=O)(=O)Nc2nc3ccccc3nc2NCc2ccc3c(c2)OCO3)cc1,inactive: 8%
12,CN(C(=O)CSc1nncc2ccccc12)c1ccccc1,inactive: 12.8%
13,C/C(=N\NC(=O)CSc1nc(C)cc(C)n1)c1cccs1,inactive: -10.9%
14,CCOc1ccc(C(C)NC(=O)c2cccnc2OCC)cc1OCC (stereo not drawn),inactive: 5.59%
15,Cc1ccc(N/N=C(\C#N)C(=N)N2CCOCC2)cc1,inactive: -6.23%
16,COc1ccc2[nH]c3c(=O)n(CCCCC(=O)NCCC(C)C)c(=S)[nH]c3c2c1,inactive: -2.69%
17,CCC(NC(=O)NCCCn1ccnc1)(C(F)(F)F)C(F)(F)F,inactive: -13.3%
18,CCOC(=O)c1cnc2c(C(F)(F)F)cccc2c1N1CCN(C)CC1,inactive: 13.2%
19,Fc1ccccc1C1c2[nH]c3ccccc3c2CCN1CCCn1cccn1 (stereo not drawn),inactive: -4.12%
20,N#C/C(=C/c1ccc(CNS(=O)(=O)c2ccccc2)o1)C(N)=O,inactive: 9.88%
21,CC(C)(C)NC(=O)c1ccccc1NC(=O)C1CCCO1 (stereo not drawn),inactive: -10.3%
22,CCc1nc2c(OCc3ccccc3OC)cccn2c1N(C)C(=O)C(C)C,inactive: -6.88%
23,CCCCOc1ccc(C(C)NC(=O)CCS(=O)(=O)Cc2ccccc2F)cc1 (stereo not drawn),inactive: 7.85%

row,SMILES,growth rescue (activation)
1,O=C(/C=C/Nc1ccc(F)cc1Br)c1ccccc1,inactive: -8.52%
2,O=C(Nc1ccc(Cl)cc1)/C(=C1\CCCN1)[N+](=O)[O-],inactive: 6.88%
3,CN(C)c1ccc(Nc2nc(N)c([N+](=O)[O-])c(N3CCOCC3)n2)cc1,inactive: -3.69%
4,COc1cc(OC)c(C(=O)NCc2ccc3c(c2)OCO3)cc1OC,inactive: 1.27%
5,Cc1ccc(NC(=O)CCNC(=O)c2ccco2)cc1,inactive: -20.5%
6,O=C(Nc1ccc(N2CCOCC2)cc1)c1cnccn1,inactive: 6.97%
7,O=C1SCCC1NS(=O)(=O)c1ccc([N+](=O)[O-])cc1 (stereo not drawn),inactive: 3.6%
8,O=C(OCC(=O)N1CCCC1)c1c(Cl)ccc(Cl)c1Cl,inactive: 5.92%
9,COC(=O)c1ccc(NC(=O)Cc2ccc(F)cc2)cc1,inactive: 8.97%
10,c1ccc(-c2nc3ccccc3[nH]2)nc1,inactive: 2.03%
11,Cc1nc(SCC(=O)Nc2nnc(C(C)C)s2)n[nH]1,inactive: -13.9%
12,CCOc1cc(C2C(C(=O)OC(C)C)=C(C)NC3=C2C(=O)CCC3)cc([N+](=O)[O-])c1O (stereo not drawn),inactive: -10%
13,CC(OC(=O)c1ccco1)C(=O)Nc1ccc(Cl)cn1 (stereo not drawn),inactive: -0.0689%
14,COc1ccc(S(=O)(=O)N2CCCCC2c2cc(C(=O)Nc3ccc(F)c(Cl)c3)no2)cc1 (stereo not drawn),inactive: 14.2%
15,Cc1ccc(S(=O)(=O)N2CCOCC2)cc1C(=O)Nc1nc2ccccc2[nH]1,inactive: 10.9%
16,CCCc1nc(SCC(=O)NC2CC2)c2c(C)c(C)sc2n1,inactive: -10.6%
17,Cc1cc(NC(=O)C(C)Oc2ccc(Cl)cc2Cl)no1 (stereo not drawn),inactive: -1.13%
18,Cc1ccc(/C=N/NC(=O)c2ccc3nc[nH]c3c2)o1,inactive: 19.1%
19,CCOc1ncccc1C(=O)OCC(=O)Nc1cc(S(=O)(=O)N2CCOCC2)ccc1Cl,inactive: 2.39%
20,CCCC(=O)N1CCCC1(C)C(=O)Nc1ccc2nc(C)ccc2c1 (stereo not drawn),inactive: -2.31%
21,Cn1c(=O)c2c(ncn2CC(=O)N2CCCCCC2)n(C)c1=O,inactive: -0.44%
